Data: PubChem BioAssay AID624296 (National Center for Advancing Translational Sciences (NCATS), 2012)
The whole screen tested about 350,000 compounds, of which about 9,900 (2.8%) were called active. This list was built around the results that the source calls inconclusive (neither active nor inactive); the mix of calls is not that of the screen. Calls come from the whole dose curve; as a rule, active = well fitted activation curve with a large enough effect; inconclusive = small, poorly fitted or top-dose-only effect; inactive = no such curve, though single readings can be large or run the other way. Potencies of inconclusive entries are left out as doubtful fits.

Assay: A quantitative high throughput screen for small molecules that induce DNA re-replication in MCF 10a normal breast cells. For activity, positive = re-replication: % of control where 0% means no effect. Note: nearly all actives have a fitted effect of over 50% in size.
Conditions: MCF 10A DNA re-replication, Hoechst nuclear intensity, 48 h; activity, positive = re-replication: at 46.1 µM (top of the series)
Potency is the fitted concentration of half-maximal effect; tags give direction and shape of the fitted curve.

Row | Structure (SMILES) | Potency | activity, positive = re-replication
1 | O=C(CN(C(=O)c1cc2c(s1)CCC2)C1CCCC1)NCc1cccs1 | inconclusive [activator, single point] | 
2 | COc1ccc(NC(=O)CSc2ccc(-c3sc(C)nc3C)nn2)cc1 |  | inactive: 2.31%
3 | COCCn1c(=NC(=O)CCS(=O)(=O)c2ccccc2)sc2c(OC)ccc(OC)c21 | inconclusive [activator, single point] | 
4 | CC(Oc1ccc(-c2ccccc2)c(F)c1)c1ccn(S(=O)(=O)c2ccc(Br)cc2)n1 (centres undefined) | inconclusive [activator, partial curve, poor fit] | 
5 | CC(NC(=O)C12CC3CC(CC(C3)C1)C2)C(=O)NN=Cc1ccc([N+](=O)[O-])o1 (centres undefined) | inconclusive [activator, single point] | 
6 | CC(C)C1=C2OC(N)=C(C#N)C(C#N)=C2C(C)CC1 (centres undefined) | inconclusive [activator, partial curve, poor fit] | 
7 | CCCc1nc2c(s1)CCc1onc(-c3ccc(Cl)cc3)c1-2 | inconclusive [activator, partial curve] | 
8 | CC1CCC(NC(=O)c2ccc(COc3ccccc3)o2)CC1 (centres undefined) |  | inactive: 3.93%
9 | Nc1ncnc2c1c(-c1ccc(Oc3ccccc3)cc1)cn2C1CCCC1 | inconclusive [activator, partial curve, poor fit] | 
10 | CC(=O)O[C@@]1(C(C)=O)CCC2C3CC(C)C4=CC(=O)CC[C@@]4(C)C3CC[C@]21C (some centres undefined) |  | inactive: 14.5%
11 | O=C(CCl)N1c2ccccc2Oc2ccc3ccccc3c21 | active: 18.4 µM | 
12 | COc1cc(O)c(C(=O)CC(=O)c2ccncc2)c(OC)c1 |  | inactive: -21.6%
13 | COc1ccc(C)cc1S(=O)(=O)N(CC(=O)Nc1ccc2c(c1)OCCO2)Cc1ccccc1 |  | inactive: -5.58%
14 | O=C(c1ccccc1)c1ccc(N2CCN(C(=O)c3cccc(F)c3F)CC2)c(F)c1 | inconclusive [activator, single point] | 
15 | CC(=O)Nc1cccc(NC(=O)CSc2ncc(C(=O)Nc3ccccc3)c(=O)n2C)c1 | inconclusive [activator, single point] | 
16 | Cc1cccc(NC(=S)N/N=C/C(C)c2ccccc2)c1C (centres undefined) |  | inactive: -0.695%
17 | O=C(COc1ccc(F)cc1)NCC1(N2CCCCC2)CCCCC1 |  | inactive: 10.7%
18 | CCN(CC)c1ccc2c(C)c(CO)c(=O)oc2c1 | inconclusive [activator, single point] | 
19 | COCC(=O)Nc1ccc2c(c1)OCC(=O)N2Cc1ccc(C)cc1 | active: 23.1 µM | 
20 | O=C(Nc1cccc(Cl)c1)c1cc(S(=O)(=O)N2CCOCC2)cs1 | inconclusive [activator, partial curve, poor fit] | 
21 | CN(NC(=O)c1ccccc1F)c1ncccc1[N+](=O)[O-] |  | inactive: -0.0489%
22 | CCCC1S/C(=N/N=C/c2cccs2)NC1=O (centres undefined) |  | inactive: 2.07%
23 | C=CCOc1ccc2oc(=O)cc(C)c2c1 |  | inactive: -84.2%

Row | Structure (SMILES) | Potency | activity, positive = re-replication
24 | CC(=O)c1c(C)[nH]c(C(=O)OCC(=O)Nc2cc(Cl)ccc2[N+](=O)[O-])c1C | inconclusive [activator, single point] | 
25 | CC(=O)Oc1ccc2c3c(c(=O)oc2c1C)CCCC3 | active: 20.6 µM | 
26 | Cc1ccc(Cl)cc1NC(=O)COC(=O)c1ccccc1O |  | inactive: -2.62%
27 | Cc1nc(N2CCN(c3ccccn3)CC2)c2c(C)c(C(=O)N3CCN(c4ccc(F)cc4)CC3)sc2n1 | inconclusive [activator, partial curve, poor fit] | 
28 | CC(=O)CC(=O)Nc1cccc2c1CCCC2 | inconclusive [activator, partial curve, poor fit] | 
29 | O=C(Nc1cccc(-c2nc3ccccc3s2)c1)c1ccc2c(c1)OCO2 | inconclusive [activator, full curve, poor fit] | 
30 | COC(=O)c1ccccc1NC(=O)CN1CCCCC1 | inconclusive [activator, full curve, poor fit] | 
31 | CCCCC[C@H](O)/C=C\[C@H]1[C@H](C/C=C\CCCC(=O)O)[C@@H](O)C[C@H]1O (tested in a mixture with another compound) |  | inactive: 5.1% [at 20.6 µM]
32 | O=C(NCCC1CCCCN1S(=O)(=O)c1cccs1)C(=O)Nc1ccc(F)cc1F (centres undefined) | active: 11.6 µM | 
33 | CCOC(=O)c1c(C)oc2c1c(C=NCCO)c(O)c1ccccc12 | inconclusive [activator, partial curve, poor fit] | 
34 | CC(=O)Nc1cccc(-c2cc(-c3c(Cl)cccc3Cl)no2)c1 | inconclusive [activator, single point] | 
35 | COc1cccc(-n2nnnc2SCC(=O)N2CCCc3ccccc32)c1 | inconclusive [activator, single point] | 
36 | COc1ccc2[nH]c3c(c2c1)CCN1C(=O)C(CC(=O)NCC24CC5CC(CC(C5)C2)C4)C[C@H](C(=O)N2CCOCC2)[C@@]31CCC1CCCC1 (some centres undefined) |  | inactive: -22.3%
37 | COc1ccc(S(=O)(=O)N2CCOCC2)cc1NC(=O)C1CCCN1C(=O)c1cccs1 (centres undefined) | inconclusive [activator, full curve, poor fit] | 
38 | Cc1nn(C(C)C(=O)NCCCN2CCCCC2C)c(=O)c2c1sc1ccccc12 (centres undefined) | inconclusive [activator, partial curve, poor fit] | 
39 | CO/N=C(\CCC(=O)O)c1cccs1 |  | inactive: -3.73%
40 | Cc1ccc(OCC(O)CN2CC3(C)CC2CC(C)(C)C3)cc1 (centres undefined) | inconclusive [activator, single point] | 
41 | Cc1ccc(-c2nc3ccc(NS(=O)(=O)c4ccccc4)cc3[nH]2)o1 |  | inactive: 20.5%
42 | O=C(NCC1CCCN1S(=O)(=O)c1cccs1)c1ccc([N+](=O)[O-])cc1 (centres undefined) |  | inactive: 10.4%
43 | CCOc1cccc2sc(N(CCCN(C)C)C(=O)c3ccc(S(=O)(=O)N4CCc5ccccc5C4)cc3)nc12 | inconclusive [activator, partial curve, poor fit] | 
44 | c1ccc(CC2CCN(c3nc4ccccc4n4nnnc34)CC2)cc1 | inconclusive [activator, single point] | 
45 | O=C(NC(=S)Nc1ccccn1)c1ccc(-c2ccccc2)cc1 | inconclusive [activator, single point] | 
46 | CN(/N=C\c1ccc(O)c(O)c1)c1nc(-c2ccccc2)cc(-c2ccccc2)n1 | inconclusive [activator, single point] | 

Row | Structure (SMILES) | Potency | activity, positive = re-replication
47 | CC(C)(O)CC[C@H](OC(=O)c1ccccc1)[C@](C)(O)[C@H]1CC[C@@]2(O)C3=CC(=O)[C@@H]4C[C@@H](O)[C@H](O)C[C@]4(C)C3CC[C@]12C (some centres undefined) |  | inactive: -0.661%
48 | Cc1c(C(=O)OCCOc2ccccc2)[nH]c2c1C(=O)CCC2 | inconclusive [activator, partial curve] | 
49 | COc1ccc(N2CCN(c3cc(C)c4ccccc4n3)CC2)cc1 | inconclusive [activator, single point] | 
50 | CC(C)CCNC(=O)CN(Cc1ccc(F)cc1)C(=O)CCC(=O)Nc1ccccn1 |  | inactive: 1.93%
51 | CC(=NO)C1CCC2C3CCC4=CC(=NO)CCC4(C)C3C(O)CC12C (centres undefined) |  | inactive: 18.5%
52 | CCCCOc1cccc(/C=N/NC(=O)c2csc(C)c2C)c1 | inconclusive [activator, partial curve, poor fit] | 
53 | Cn1c(NCc2cccc(Br)c2)nc2ccccc21 | inconclusive [activator, partial curve] | 
54 | Cc1ccc(Nc2ncc(C(=O)NCCCN3CCN(C)CC3)c3ccccc23)cc1Cl | active: 23.1 µM | 
55 | O=C(Nc1cccc(S(=O)(=O)N2CCCC2)c1)c1ccc2c(=O)n3c(nc2c1)CCCCC3 |  | inactive: 17.4%
56 | C=CCn1cc(C(=O)OC)c(=O)c2cc(S(=O)(=O)N3CCC(C)CC3)ccc21 |  | inactive: -1.97%
57 | Cc1ccc(C(=O)N/C(=C\c2ccc(-c3ccc([N+](=O)[O-])cc3)o2)C(=O)NC2CCS(=O)(=O)C2)cc1 (centres undefined) | inconclusive [activator, single point] | 
58 | COc1cccc(NC(=O)COC(=O)CC2CC3CCC2C3)c1 (centres undefined) | inconclusive [activator, single point] | 
59 | C1CNCCNCCCNCCNC1 |  | inactive: 13.4%
60 | COc1ccc(-n2cc(CNCCCn3ccnc3)c(-c3ccccc3Cl)n2)cc1 | inconclusive [activator, partial curve, poor fit] | 
61 | CC1(C)CC2CC(C)(CN2S(=O)(=O)c2ccc(C(=O)Nc3ccc(Cl)c(S(=O)(=O)N4CCOCC4)c3)cc2)C1 (centres undefined) |  | inactive: -1.46%
62 | CC(C)(C)c1nnc(NC(=O)CCS(=O)(=O)Cc2ccccc2)s1 | inconclusive [activator, single point] | 
63 | CC(=O)c1sc(N/N=C\c2ccc(N(C)C)cc2)nc1C | active: 16.4 µM | 
64 | CCOC(=O)c1c(-c2ccc(OC)cc2)oc2cc(Br)c(O)cc12 | active: 14.6 µM | 
65 | COC(=O)CC(NC(=O)CN1CCN(c2ccc(F)cc2)CC1)c1cccc(F)c1 (centres undefined) |  | inactive: 7.53%
66 | Cc1ccc(-n2c([C@@H]3C[C@H]3c3ccccc3)n[nH]c2=S)cc1 | inconclusive [activator, single point] | 
67 | CN(CC(=O)Nc1ccc(Cl)c(C(F)(F)F)c1)C(=O)Cc1c[nH]c2ccccc12 | inconclusive [activator, single point] | 
68 | O=C(Cc1cccs1)N(Cc1cccs1)C1(C(=O)NC2CCCCC2)CCCCC1 |  | inactive: 9.19%
69 | O=C(CSc1nnc(CNC(=O)c2ccccc2)o1)NCc1ccc2c(c1)OCO2 | inconclusive [activator, single point] | 
